44 compounds from PMC4336329 (PLoS ONE, 2015) can be followed below.

Out of some 310,000 compounds screened, about 14,000 (4.5%) showed an effect of 50% or more. The effect is printed as a negative number. The list shows a part of the results.
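Note: peak tail current of the secondary pulse compared with the same well before compound.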

Chain of human ether-à-go-go-related gene (hERG) potassium channel (Q12809 whole entry, looked up): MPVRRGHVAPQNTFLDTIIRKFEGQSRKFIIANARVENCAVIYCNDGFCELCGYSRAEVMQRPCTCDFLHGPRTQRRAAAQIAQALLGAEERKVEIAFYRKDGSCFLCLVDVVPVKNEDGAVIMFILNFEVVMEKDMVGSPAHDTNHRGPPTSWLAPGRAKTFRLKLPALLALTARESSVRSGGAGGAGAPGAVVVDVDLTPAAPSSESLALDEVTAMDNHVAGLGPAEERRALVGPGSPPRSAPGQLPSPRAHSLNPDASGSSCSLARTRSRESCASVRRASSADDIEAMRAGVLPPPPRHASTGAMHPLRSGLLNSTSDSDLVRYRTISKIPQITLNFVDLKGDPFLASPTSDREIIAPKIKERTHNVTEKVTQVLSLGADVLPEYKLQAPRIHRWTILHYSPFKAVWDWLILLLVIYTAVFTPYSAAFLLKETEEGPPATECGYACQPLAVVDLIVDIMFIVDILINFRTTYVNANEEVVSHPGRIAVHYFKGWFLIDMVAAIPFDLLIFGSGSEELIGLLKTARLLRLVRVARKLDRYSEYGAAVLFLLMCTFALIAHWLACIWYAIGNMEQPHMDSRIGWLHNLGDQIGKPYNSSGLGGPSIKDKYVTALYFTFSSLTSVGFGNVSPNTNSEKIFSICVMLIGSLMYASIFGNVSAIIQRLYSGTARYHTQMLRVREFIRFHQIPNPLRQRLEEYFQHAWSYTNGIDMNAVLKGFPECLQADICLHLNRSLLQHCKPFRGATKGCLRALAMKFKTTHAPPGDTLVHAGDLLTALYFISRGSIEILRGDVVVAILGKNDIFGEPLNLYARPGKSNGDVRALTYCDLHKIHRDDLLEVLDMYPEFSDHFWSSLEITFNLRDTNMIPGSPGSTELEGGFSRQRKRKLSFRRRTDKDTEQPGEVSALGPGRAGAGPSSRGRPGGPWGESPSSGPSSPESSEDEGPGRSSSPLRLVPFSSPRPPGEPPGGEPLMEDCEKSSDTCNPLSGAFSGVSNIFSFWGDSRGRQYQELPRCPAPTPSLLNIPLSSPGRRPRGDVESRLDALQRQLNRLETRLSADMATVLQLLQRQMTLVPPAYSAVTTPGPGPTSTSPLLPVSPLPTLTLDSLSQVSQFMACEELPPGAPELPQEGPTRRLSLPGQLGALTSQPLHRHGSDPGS

The assay has as its target human ether-à-go-go-related gene (hERG) potassium channel (human, UniProt Q12809). Description: primary screen, population patch clamp on CHO cells stably expressing hERG.
Regarding `CC(=O)N/C(=C\c1ccc(C)o1)C(=O)NCc1ccccc1`, the “hERG current change (%, negative = inhibition) at 10uM” value was found to be 21.8%.
With `N#Cc1c(-c2ccco2)ccn(Cc2ccc(F)cc2)c1=O` the figure was -14.2%; with `CC(C)CNS(=O)(=O)c1ccc(CCC(=O)Nc2ccc3c(c2)OCO3)cc1`, 7.54%.
Turning to `O=C(CCC(=O)NCCCc1ccccc1)NCCCc1ccccc1`, the “hERG current change (%, negative = inhibition) at 10uM” value was found to be 8.6%.
With `CCc1nnc(NC(=O)CSc2nc3c(c(=O)n2CC)SC(C)C3)s1` (centres unmarked) the figure was 6.7%.
With `CN(CCCN1CCCCC1)C(=O)c1cc(COc2ccc(F)cc2F)on1`, the “hERG current change (%, negative = inhibition) at 10uM” value was -32.6%.
For the compound `Cc1ccc(CNC(=O)CSc2ncn[nH]2)cc1`, the “hERG current change (%, negative = inhibition) at 10uM” value worked out at 22.4%.
As for `CCCC(=O)Nc1ccc2oc(-c3ccc(OC)c(Br)c3)nc2c1`, the figure is 9.42%.
As for `O=[N+]([O-])c1ccccc1N/N=C/c1c[nH]c2ccccc12`, the figure is 16.2%.
For the compound `Cc1ccc[n+](C(C)C(=O)c2ccc(Cl)cc2)c1.[Br-]` (centres unmarked), the “hERG current change (%, negative = inhibition) at 10uM” value is 20.1%.
With `CCN(CC)c1ccc(-c2sc(Nc3ccccc3)n[n+]2-c2ccc(F)cc2)cc1.[Cl-]` the figure was -71.6%; with `CCOCCCN1CC(C(=O)NCc2ccc3c(c2)OCO3)CC1=O` (centres unmarked), 2.71%.
Take `Cc1cccc(NC(=O)c2nc[nH]c2C(=O)N[C@@H](CC(C)C)C(=O)OC(C)(C)C)c1`: the “hERG current change (%, negative = inhibition) at 10uM” value worked out at 18.5%.
On to `CC(C)n1cnnc1SCC(=O)Nc1ccc(Br)cc1F`, for which the “hERG current change (%, negative = inhibition) at 10uM” value was 14.6%.
With `O=C(CCS(=O)(=O)c1ccccc1)Nc1ccccn1` the figure was 17.1%; with `Cc1[nH]c2ccccc2c1SCC(=O)N1CCCCCC1`, -10%.
With `COc1cccc(/C=C/C(=O)OCC(=O)NCCNC(=O)COC(=O)/C=C/c2cccc(OC)c2)c1` the figure was -1.52%.
With `Cc1cc(NC(=O)CSc2nc3c(c(=O)n2-c2ccc(Cl)cc2)SCC3)no1` the figure was -8.08%; with `O=c1[nH]c(N/N=C/c2ccccc2)nc2ccccc12`, -14.9%.
As for `CN(c1ccccc1)S(=O)(=O)c1cccc(NC(=O)COc2cccc([N+](=O)[O-])c2)c1`, the “hERG current change (%, negative = inhibition) at 10uM” value is reported as -45.4%.
As for `CCOC(=O)c1c(C)n(C)c2ccc(OC)c(NC(=O)CN3CCC(C(=O)OCC)CC3)c12`, the figure is 0.953%.
For `CCn1c(C(C)NC(C)=O)nc2ccccc21` (centres unmarked), the “hERG current change (%, negative = inhibition) at 10uM” value was -0.288%.
With `COC(=O)C1=C(C)N(Cc2ccccc2)C(=NCCc2cccnc2)N[C@H]1c1ccccc1` the figure was -63%; with `C=CCc1ccc(OCCOc2cccc3ccc(C)nc23)c(OC)c1.O=C(O)C(=O)O`, -6.6%; with `O=C(OCc1ccc(F)cc1)c1ccc2ccccc2n1`, -8.34%.
Regarding `O=C(O)CCC(=O)Nc1ccc(F)cc1`, the “hERG current change (%, negative = inhibition) at 10uM” value was 12.7%.
Take `CCn1c(SCC(=O)Nc2nc3ccc(OC)cc3s2)nnc1-c1ccoc1C`: the “hERG current change (%, negative = inhibition) at 10uM” value is recorded as -32.3%.
As for `COc1cc(/C=N/NC(=O)c2c(C)nnn2-c2nonc2N)ccc1O`, the figure is -39.3%; as for `Cc1ccc(NC(=O)COC(=O)c2ccc([N+](=O)[O-])o2)cc1S(=O)(=O)N1CCCCCC1`, -33.7%.
With `CNC(=O)CNC(=O)Nc1ccc(C)cc1` the figure was 17.9%; with `COc1ccccc1C1CCN(c2cc(O)ccc2[N+](=O)[O-])CC1`, 4.65%; with `O=C(Nc1ccc(O)cc1)C1CCCO1` (centres unmarked), 16.4%.
As for `CCNC(=S)NNC(=O)c1cc(C)nc2ccccc12`, the figure is -14.1%.
In the case of `CC(C)CCNC(=O)C1CCN(S(=O)(=O)c2ccc3nc4c(c(C(=O)O)c3c2)CCCCC4)CC1`, the “hERG current change (%, negative = inhibition) at 10uM” value is 31.8%.
With `O=C(CSc1cccc(C(F)(F)F)c1)NC(=O)NCc1ccco1` the figure was -3.66%.
On to `O=C(COC(=O)c1cccc(O)c1)NCc1ccc2c(c1)OCO2`, for which the “hERG current change (%, negative = inhibition) at 10uM” value is listed as -5.22%.
Take `O=C(CN(Cc1cccs1)C(=O)CNS(=O)(=O)c1ccc(F)cc1)NCc1ccco1`: the “hERG current change (%, negative = inhibition) at 10uM” value is given as -26.4%.
With `O=C(NCCC1=CCCCC1)C1CCN(S(=O)(=O)c2cccc3cccnc23)CC1` the figure was -20.1%; with `Cl.O=C(O)c1ccc(Nc2nc(-c3cccnc3)nc3ccccc23)cc1`, 5.35%.
As for `CC1CCCN(CC(=O)NC(=O)NC2CCCCC2)C1` (centres unmarked), the “hERG current change (%, negative = inhibition) at 10uM” value was determined as 4.65%.
In the case of `CC(=O)Nc1ccc(NS(=O)(=O)c2ccc(Cl)s2)cc1`, the “hERG current change (%, negative = inhibition) at 10uM” value was -5.65%.
Take `CCCCCCC(=O)Nc1nc(C)c(-c2csc(Nc3cc(Cl)ccc3C)n2)s1`: the “hERG current change (%, negative = inhibition) at 10uM” value came out at 13.5%.
With `O=S(=O)(c1cc(Cl)ccc1Cl)N1CC2CCCN2c2ccc(C(F)(F)F)cc21` (centres unmarked), the “hERG current change (%, negative = inhibition) at 10uM” value is on record as -9.61%.
For `Cn1c(=O)c2c(nc(SCC(=O)NCC3CCCO3)n2C)n(C)c1=O` (centres unmarked), the “hERG current change (%, negative = inhibition) at 10uM” value is reported as 2.28%.
